# Over roughly 33,000 sequences, “E-score (-0.5 to 0.5)” has its median near -0.016; the highest 2% begin near 0.31. Some of the results follow.
# Target: Cst6 (UniProt P40535)
# Assay: PBM E-score (8-mer binding enrichment) (E-score (-0.5 to 0.5)); higher = stronger / more preferred TF binding; most listed sequences are background and not binding sites
# Details: protein concentration: 200 nM; construct: GST-DNA-binding domain
# How it was run: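 PURExpress in vitro transcription/translation supplied GST-tagged yeast transcription factors, either full-length or DNA-binding domain. Applied at about 100-200 nM to universal all-10-mer Agilent arrays double-stranded by primer extension, the bound protein was detected with fluorescent anti-GST. E-scores, modified Wilcoxon-Mann-Whitney statistics, were given by the Universal PBM Analysis Suite to ungapped eight-base words pooled with their reverse complements after masliner normalisation.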
row,Sequence,PBM E-score
1,CCGGTTCC,-0.24
2,CGAGCCCG,-0.126
3,CAACATTA,0.226
4,ATACCAAG,0.0992
5,ACGTCGAC,0.179
6,ACCACTCT,-0.182
7,ACTCCTAC,-0.225
8,AGACTCGG,-0.297
9,CTGCCCAC,-0.227
10,GCATAAGC,0.115
11,GTCAGCTA,-0.0597
12,GTATGGCA,0.0485
13,CAGTATCA,0.148
14,ATGCCACG,0.00475
15,CAGTTCAC,0.0141
16,AGAGGCAC,0.0217
17,CACACAAA,0.165
18,GTGCGCGA,0.136
19,ATATTGTG,0.136
20,ATTAACAG,0.0381
21,TAACTGAA,0.105
22,ACTTTTCG,0.103
23,TTAGAAAA,0.193
24,CTGAGCTA,-0.0727
25,GCAGTGCA,-0.1

row,Sequence,PBM E-score
1,ACCACGGA,-0.311
2,CACTTGTA,0.0874
3,ACAGGCGG,-0.104
4,AGGTACGG,-0.142
5,CAGAGTAG,-0.0569
6,ATGACATG,0.351
7,CGCTGATA,-0.0681
8,ACGGCTGG,-0.135
9,TAAATATA,0.291
10,ACTGGCCT,-0.0929
11,GCTTGGCA,-0.141
12,ACGACAAG,0.0296
13,GACAGTCC,-0.317
14,CTTCGAGA,0.0491
15,GTCAAAAA,0.219
16,AAAGTGAC,0.14
17,CCTAGTCA,-0.147
18,AGAAACGG,0.0981
19,GCTGATTA,0.239
20,GACGCGTA,0.224
21,GGTAACAA,0.28
22,CATACTAC,-0.0698
23,AGTACACG,0.0113
24,GAAATCAC,0.27
25,AAAATTCT,0.144

row,Sequence,PBM E-score
1,CTGTTCCC,-0.214
2,CGGGGATC,-0.369
3,AGTCGCCG,-0.038
4,AAGTTGTC,0.113
5,CAGCTCGA,-0.219
6,GGATGCTA,-0.164
7,ATGTCCCA,-0.259
8,ATTCCAAG,0.117
9,AATCATAA,0.191
10,ATGTGGTC,0.0176
11,TAAGTGCA,0.167
12,CCGCTACC,-0.205
13,AGACACTA,-0.087
14,ACCCAAAT,0.0908
15,GATAGGGA,-0.161
16,GAGAAAGC,0.14
17,CCAGTTGA,0.13
18,GATAGATC,-0.0783
19,ACTCCTGA,-0.0557
20,AACCACGT,-0.0278
21,TACCTGCA,-0.0618
22,CACTCGGA,-0.0216
23,ACCCCGCT,-0.159
24,AACCTGGA,-0.037
25,CCCCTCAG,-0.4

row,Sequence,PBM E-score
1,CATACAAC,0.12
2,CCGGATTC,-0.172
3,CTCCTACA,-0.152
4,AACCACTT,-0.0523
5,AGCTTCCC,-0.383
6,TGCTACAA,0.0326
7,AAGTCTAA,-0.0219
8,CAATTTAG,0.153
9,CGGGTCGC,-0.0753
10,TAGGTAAA,0.116
11,TGTAGAAA,0.151
12,TCTCATAA,0.0305
13,ATGCTCAC,-0.102
14,CCTTCGCC,-0.244
15,ATTCGCGG,0.0715
16,ACATCTCC,-0.0981
17,CTAATTAA,0.176
18,AACAATAT,0.37
19,CACCGGAG,-0.17
20,AGGGGAGC,-0.314
21,ACAAACCC,0.00475
22,GGACGGCC,-0.185
23,TACGCCCA,-0.0701
24,CGGTATAG,-0.217
25,CATCCTTC,0.114

row,Sequence,PBM E-score
1,CTTAATGC,0.142
2,AAACAATT,0.196
3,AAACGGTG,-0.0215
4,GAATTTCA,0.0572
5,CTCATTGC,0.105
6,CCAGGCAC,-0.149
7,CCCTCTCG,-0.397
8,CAACCAAC,-0.175
9,TTCGGAAA,0.0278
10,ATTAGATA,0.074
11,AGCCTCCA,-0.189
12,CTAGCCTA,-0.2
13,CCTGACGA,0.182
14,CGCCCTTC,-0.0927
15,AGGACGGG,-0.316
16,TAGCGTAA,0.238
17,CTCTGCGC,-0.107
18,AGTATTGC,-0.101
19,GGTACAAC,-0.0659
20,CAGAGTTC,-0.0592
21,CCCGCTAG,-0.231
22,GCTAAAAC,-0.066
23,CGCCTCAC,0.135
24,GAACTTCA,-0.177
25,GGTGTCAA,0.0296

row,Sequence,PBM E-score
1,AGTGCCGA,-0.00913
2,GAGATAGC,-0.00029
3,AGCCGCAC,0.188
4,AACGTCAG,0.371
5,CATCGTTC,-0.00332
6,AACGCTGT,0.0633
7,AATATCCC,0.0228
8,ATTAGGGC,-0.0911
9,CAAATGCG,0.107
10,ATTGAACC,-0.00894
11,GCAGTTAA,0.0624
12,TCCTACCA,-0.316
13,ATTCCTTG,-0.0393
14,GAAGGAAA,-0.144
15,TGAGGGCA,-0.164
16,GGGTCAAC,-0.0874
17,ACATCTAC,0.138
18,GGGTTCGA,-0.268
19,GAACGTAC,-0.122
20,ATAACTCA,0.075
21,CTCTTTAA,0.00012
22,ACTCTTGA,-0.103
23,GGGCATAA,0.0274
24,TCAATTAA,0.117
25,CATACGTA,0.383

row,Sequence,PBM E-score
1,GTGATCTA,0.214
2,ACCACATA,0.149
3,ACGCATCG,-0.105
4,AGGCTGAT,-0.161
5,CCAAAAAA,0.279
6,GCTCCCCC,-0.379
7,GGAGCGAC,-0.182
8,CGTTGGGC,-0.087
9,GAACTCTA,-0.0178
10,CACACGAC,-0.0215
11,AAGTTGTG,0.116
12,AACAAATA,0.242
13,ATTACACG,0.205
14,AAAAACGT,0.107
15,AGGCTTAC,0.0256
16,CGGCATAC,0.0732
17,TCCCACGA,-0.0646
18,CCGGACTA,-0.0691
19,GCTAGGTA,-0.192
20,AGGGTAAG,-0.0709
21,TAAACGCA,0.12
22,AGATGAAT,-0.00341

# From the supplement of paper PMC3334620
